The list shows a part of the results.
The compounds below were run on HepG2 (assay: cytotoxicity call (relative viability < 0.9)). Details: 10 µM.

SMILES | cytotoxicity call
Cc1csc2sc(COC(=O)Nc3ccccc3)c(C)c12 | inactive
COc1ccc(NC(=O)N(C)C[C@H]2Oc3c(NS(=O)(=O)c4cn(C)cn4)cccc3C(=O)N([C@H](C)CO)C[C@H]2C)cc1 | inactive
CC(C)NC(=O)Nc1ccc2c(c1)C(=O)N([C@H](C)CO)C[C@H](C)[C@@H](CN(C)C(=O)Nc1ccccc1)OCCCC[C@H](C)O2 | inactive
COc1ccc(NC(=O)N(C)C[C@@H]2Oc3c(NC(=O)C4CC4)cccc3C(=O)N([C@@H](C)CO)C[C@@H]2C)cc1 | inactive
Cc1noc(C)c1S(=O)(=O)N(C)C[C@@H]1OCc2cn(nn2)CCCC(=O)N([C@@H](C)CO)C[C@H]1C | inactive
Cc1noc(C)c1S(=O)(=O)Nc1cccc2c1O[C@@H](CN(C)C(=O)Nc1ccc3c(c1)OCO3)[C@@H](C)CN([C@@H](C)CO)C2=O | inactive
COc1ccc(NC(=O)N(C)C[C@H]2Oc3ccc(NS(=O)(=O)c4cn(C)cn4)cc3C(=O)N([C@H](C)CO)C[C@H]2C)cc1 | inactive
NNC(=O)c1cccc([N+](=O)[O-])c1 | inactive
Cc1ccc(S(=O)(=O)Nc2ccc3c(c2)C(=O)N([C@@H](C)CO)C[C@H](C)[C@@H](CN(C)C(=O)C2CCCCC2)OCCCC[C@H](C)O3)cc1 | inactive
COc1ccc(CN(C)C[C@@H]2OCCCC[C@H](C)Oc3ccc(NC(=O)Nc4ccc5c(c4)OCO5)cc3C(=O)N([C@H](C)CO)C[C@@H]2C)cc1 | inactive
C[C@H]1CCCCO[C@H](CN(C)S(=O)(=O)c2ccc(F)cc2)[C@@H](C)CN([C@@H](C)CO)C(=O)c2cc(NC(=O)C3CCCCC3)ccc2O1 | inactive
CCCn1nc(C)c(CN)c1C | inactive
C[C@@H]1CCCCO[C@@H](CN(C)C(=O)Cc2ccccc2)[C@H](C)CN([C@H](C)CO)C(=O)c2cc(NC(=O)CCC(F)(F)F)ccc2O1 | inactive
Cc1noc(C)c1S(=O)(=O)Nc1ccc2c(c1)C(=O)N([C@H](C)CO)C[C@H](C)[C@@H](CN(C)C(=O)Nc1ccc(C(F)(F)F)cc1)OCCCC[C@@H](C)O2 | inactive
COc1ccc(S(=O)(=O)Nc2ccc3c(c2)CC(=O)N([C@H](C)CO)C[C@H](C)[C@H](CN(C)Cc2ccc(Oc4ccccc4)cc2)O3)cc1 | active
C/C=C/c1ccc2c(c1)O[C@H](CN(C)C(=O)c1ccc3c(c1)OCO3)[C@H](C)CN([C@@H](C)CO)S2(=O)=O | inactive
CO[C@@H]1CN(C)C(=O)c2ccc(NS(C)(=O)=O)cc2OC[C@@H](C)N(C(=O)C2CCOCC2)C[C@@H]1C | inactive
COc1ccc(NC(=O)N(C)C[C@H]2Oc3ccc(NC(=O)CCCN(C)C)cc3C(=O)N([C@@H](C)CO)C[C@H]2C)cc1 | inactive
COCC#Cc1ccc2c(c1)O[C@@H](CN(C)S(C)(=O)=O)[C@H](C)CN([C@H](C)CO)S2(=O)=O | inactive
CCCNC(=O)N1C[C@]2(CCN(CC2)S(=O)(=O)c2ccc(cc2)OC)c2c(n(c3cc(ccc23)OC)C)[C@@H]1CO | active

SMILES | cytotoxicity call
C[C@H](CO)N1C[C@H](C)[C@@H](CN(C)S(C)(=O)=O)Oc2ccc(NC(=O)Cc3cn(C)c4ccccc34)cc2CC1=O | inactive
CC[C@H]1COCCC(=O)N1 | inactive
CO/N=[N+](\[O-])N1CCC[C@H](C(N)=O)C1 | inactive
CN(C)CCCNC(=O)C[C@H]1CC[C@@H]2[C@H](COc3ccc(NS(C)(=O)=O)cc3C(=O)N2C)O1 | inactive
Cc1noc(C)c1S(=O)(=O)Nc1ccc2c(c1)C(=O)N([C@@H](C)CO)C[C@H](C)[C@H](CN(C)Cc1ccncc1)O2 | inactive
COc1cccc(NC(=O)N2C[C@H](O)COC[C@@H]3O[C@@H](CC(=O)NCc4ccccc4F)CC[C@H]32)c1 | inactive
C[C@H](CO)N1C[C@H](C)[C@@H](CN(C)S(=O)(=O)c2ccc(F)cc2)Oc2cc(C3=CCCC3)ccc2S1(=O)=O | inactive
COc1ccccc1NC(=O)N(C)C[C@@H]1Oc2ncc(C#CCN(C)C)cc2C(=O)N([C@H](C)CO)C[C@H]1C | inactive
COc1ccc(CN(C)C[C@H]2Oc3ccc(NC(=O)Nc4cccc5ccccc45)cc3C(=O)N([C@@H](C)CO)C[C@H]2C)cc1 | inactive
O=C(C[C@@H]1CC[C@@H](NC(=O)CN2CCOCC2)[C@@H](CO)O1)NCCc1ccccc1 | inactive
Cc1ccccc1-c1ccc2c(c1)O[C@H](CN(C)C(=O)Nc1ccc(C(F)(F)F)cc1)[C@@H](C)CN([C@H](C)CO)S2(=O)=O | inactive
CO[C@@H]1CN(C)C(=O)c2cc(NC(=O)c3ccc(Oc4ccccc4)cc3)ccc2OC[C@@H](C)N(C(C)=O)C[C@H]1C | inactive
C[C@H](CO)N1C[C@H](C)[C@@H](CN(C)C(=O)c2ccccc2)OCCCC[C@H](C)Oc2ccc(NC(=O)Nc3ccc(F)cc3)cc2C1=O | inactive
C[C@@H]1CCCCO[C@H](CN(C)Cc2ccc(Cl)c(Cl)c2)[C@@H](C)CN([C@@H](C)CO)C(=O)c2cc(NC(=O)C3CCCCC3)ccc2O1 | active
COCc1cn(CC[C@@H]2CC[C@@H](NC(=O)CCN3CCCCC3)[C@@H](CO)O2)nn1 | inactive
NCCOc1cccc(Cl)c1 | inactive
COc1ccc2c3c(n(c2c1)C)[C@H](CO)N(C[C@]13CN(C1)S(=O)(=O)c1ccc(cc1)C)S(=O)(=O)c1ccc(cc1)C | inactive
O=c1[nH]c2ccccc2c2ccccc12 | inactive
C[C@H]1CN([C@@H](C)CO)C(=O)Cc2cc(NC(=O)Nc3ccccc3)ccc2O[C@H]1CN(C)C(=O)Nc1cccc2ccccc12 | inactive
C[C@@H](N)CCCP(=O)(O)O | inactive
